{"source": "PubChem BioAssay AID445", "about": "(National Center for Advancing Translational Sciences (NCATS), 2006)", "note": "Among all 110,000 compounds or so, about 40 (0.04%) were called active. The shares of active, inactive and inconclusive entries below differ from those in the screen. Calls follow the shape of the dose curve; as a rule, active = well fitted curve in the direction sought with a large enough effect in the signal ratio (not every such curve was filed as active); inconclusive = small, poorly fitted or top-dose-only effect, or a change in a side signal; inactive = flat fitted curve, though single readings scatter; the % refers to the signal ratio. A potency beside an inconclusive call is a rough fit, not a confirmed value. Potency is read from the fitted curve at half-maximal effect.", "data": [{"test": "IkB Signaling;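 as to IkBa stabilization activation: 0% = basal untreated cells and 100% = reference inhibitor full response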", "settings": "ABC-DLBCL IkBa-CBG/CBR dual luciferase ratio (green luciferase fused to IkBa over red control in OCI-Ly3 lymphoma cells), 4 h; IkBa stabilization activation: at 57.1 µM (top of the series), scaled: untreated 0%, proteasome inhibitor 100% unless noted", "outline": "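Curves were fitted separately to fusion (green), unfused (red) and ratio luminescence, then classed by r2, magnitude and activity. Cells: OCI-Ly3, 4 h compound plus doxycycline at 37C; 10 uM MG-132 defined full response.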", "values": [{"molecule": "Cc1cc(F)ccc1NC(=O)C1CCN(S(=O)(=O)c2ccc3c(c2)CCCC(=O)N3)CC1", "IkBa stabilization activation": "inactive: 0.707%"}, {"molecule": "Cc1ccccc1Cn1cc(CCC(=O)NCc2cccc(Br)c2)c2ccccc21", "IkBa stabilization activation": "inactive: -0.832%"}, {"molecule": "NCCc1nnc(SCc2c(F)cccc2Cl)o1", "IkBa stabilization activation": "inactive: -1.65%"}, {"molecule": "COc1ccc2[nH]cc(CCNc3ncncc3-c3ccoc3)c2c1", "IkBa stabilization activation": "inconclusive: 16.4% [signal inhibitor] [at 11.4 µM, scaled: untreated 0%, proteasome inhibitor 100%]"}, {"molecule": "COc1ccc(S(=O)(=O)NCC(c2ccco2)N2CCN(c3ccc(F)cc3)CC2)cc1", "note": "(stereo not given)", "IkBa stabilization activation": "inconclusive: 2.67% [signal inhibitor]"}, {"molecule": "CC(C)c1cnc2c(c1SCC(=O)c1ccccc1)c(=O)n(C)c(=O)n2C", "IkBa stabilization activation": "inconclusive: 0.126% [signal inhibitor]"}, {"molecule": "COC(=O)c1ccn(-c2nc(-c3ccc(Cl)cc3)cc(C(F)(F)F)n2)n1", "IkBa stabilization activation": "inconclusive: 3.05% [signal inhibitor]"}, {"molecule": "Cc1ccc(C(=O)Nc2sc3c(c2C(=O)O)CCCCC3)o1", "Potency": "inconclusive: 0.158 µM [signal inhibitor, full curve]"}, {"molecule": "COc1ccc(-c2nc(C)c(CCNS(=O)(=O)c3ccc(F)cc3)s2)cc1OC", "IkBa stabilization activation": "inconclusive: 1.55% [signal inhibitor]"}, {"molecule": "O=C(O)c1ccc(Oc2nc3ccccc3s2)cc1", "IkBa stabilization activation": "inconclusive: 10.8% [signal inhibitor] [at 11.4 µM, scaled: untreated 0%, proteasome inhibitor 100%]"}, {"molecule": "COCCn1c(SCC(=O)N2CCCc3ccccc32)nc2ccccc2c1=O", "IkBa stabilization activation": "inactive: 1.83%"}, {"molecule": "CC(C)c1ccc(CN(Cc2ccco2)c2cnc(S(C)(=O)=O)nc2C(=O)Nc2ccccc2)cc1", "IkBa stabilization activation": "inconclusive: 1.14% [signal inhibitor]"}, {"molecule": "CCn1c2ccccc2c2cc(NC(=O)CCCN3C(=O)CCC3=O)ccc21", "Potency": "inconclusive: 10 µM [signal inhibitor, partial curve]"}, {"molecule": "Cc1ccc2oc(-c3cccc(NC(=O)c4ccc(N5CCC(C)CC5)c([N+](=O)[O-])c4)c3)nc2c1", "IkBa stabilization activation": "inactive: 0.0656%"}, {"molecule": "COc1ccc(Nc2nc(Nc3ccc(OC)cc3OC)nc(N3CCOCC3)n2)c(OC)c1", "IkBa stabilization activation": "inactive: -0.254%"}, {"molecule": "Cc1oc(-c2ccc(Cl)cc2)nc1CN1CCCC(C(=O)NCCc2ccccc2)C1", "note": "(stereo not given)", "IkBa stabilization activation": "inconclusive: 0.303% [signal inhibitor]"}, {"molecule": "CC(C)(C)c1cn(-c2ccccc2)c(=S)[nH]1", "IkBa stabilization activation": "inconclusive: 17.2% [signal inhibitor]"}, {"molecule": "CCC(C(=O)Nc1nccs1)c1ccccc1", "note": "(stereo not given)", "IkBa stabilization activation": "inactive: 2.93%"}, {"molecule": "CC(=O)c1ccc(NC(=O)CSc2c(C(C)C)cnc3c2c(=O)n(C)c(=O)n3C)cc1", "IkBa stabilization activation": "inconclusive: 3.06% [signal inhibitor]"}, {"molecule": "Cc1ccc(S(=O)(=O)N2CCCc3cc(NS(=O)(=O)c4ccc(C)c(C)c4)ccc32)cc1", "IkBa stabilization activation": "inactive: 2.29%"}, {"molecule": "COC(=O)c1ccc(NC(=O)CN(C2CCCCC2)S(C)(=O)=O)cc1", "IkBa stabilization activation": "inactive: -0.775%"}, {"molecule": "COC(=O)c1c(-c2cccs2)csc1NC(=O)c1ccc(C)cc1", "IkBa stabilization activation": "inactive: -1.84%"}, {"molecule": "Cc1cc(NC(=O)c2cc(-c3ccc(Cl)c(Cl)c3)on2)n(-c2ccccc2)n1", "IkBa stabilization activation": "inconclusive: 5.69% [signal inhibitor]"}, {"molecule": "CCOc1ccc(CNC(=O)C2CCN(C(=O)N3CC(CC)Oc4ccc(C)cc43)CC2)cc1OC", "note": "(stereo not given)", "IkBa stabilization activation": "inconclusive: 1.1% [signal inhibitor]"}, {"molecule": "COc1ccccc1NC(=O)Cn1c(=O)n(CC2CCC(C(=O)NCCc3ccccc3)CC2)c(=O)c2ccccc21", "note": "(stereo not given)", "IkBa stabilization activation": "inconclusive: 12.4% [signal inhibitor]"}, {"molecule": "Cc1cc(Br)ccc1NC(=O)c1c(C)oc2ncnc(N3CCCCC3)c12", "IkBa stabilization activation": "inconclusive: 3.97% [signal inhibitor]"}, {"molecule": "Cc1ccccc1N1CC(c2nc3ccccc3n2Cc2ccc(Br)cc2)CC1=O", "note": "(stereo not given)", "IkBa stabilization activation": "inactive: 1.38%"}, {"molecule": "CCN(CC)CCOC(=O)c1ccc(NC(=O)c2cc3cc(OC)ccc3oc2=O)cc1", "IkBa stabilization activation": "inconclusive: 4.41% [signal inhibitor]"}, {"molecule": "COCCNC(=O)CN1C(=O)COc2ccc(S(=O)(=O)N3CCCC3)cc21", "IkBa stabilization activation": "inconclusive: 0.784% [signal inhibitor]"}, {"molecule": "CCc1ccc(NC(=O)Cn2c(=O)n(CCCC(=O)NCCc3ccc(OC)c(OC)c3)c(=O)c3ccccc32)cc1", "IkBa stabilization activation": "inconclusive: -0.00871% [signal inhibitor]"}, {"molecule": "Cc1ccc(-c2cc3nc4c(c(=O)n3[nH]2)CCCC4)cc1", "IkBa stabilization activation": "inactive: -1.25%"}, {"molecule": "Cc1ccccc1NC(=O)CCn1nc(-c2ccccc2)c2ccccc2c1=O", "IkBa stabilization activation": "inactive: -1.2%"}, {"molecule": "COc1ccc(OC)c(N=c2oc3cc(O)ccc3cc2C(N)=O)c1", "IkBa stabilization activation": "inconclusive: 7% [signal inhibitor]"}, {"molecule": "CC(=O)NC12CC3CC(C1)CC(C(=O)OCC(=O)c1ccc4c(c1)OCCO4)(C3)C2", "IkBa stabilization activation": "inconclusive: 1.16% [signal inhibitor]"}, {"molecule": "CCOc1ccc(Sc2cc(C(=O)NCc3ccccc3Cl)c3ccccc3n2)cc1", "IkBa stabilization activation": "inconclusive: -0.0951% [signal inhibitor]"}, {"molecule": "COc1ccccc1N1CCN(c2csc3ccccc3c2=O)CC1", "IkBa stabilization activation": "inconclusive: 2.05% [signal inhibitor]"}, {"molecule": "Cc1cccc(C)c1Nc1c(-c2ccsc2)nc2cccc(C)n12", "IkBa stabilization activation": "inconclusive: 11.9% [signal inhibitor]"}, {"molecule": "COc1cccc(NC(=O)Cn2c(-c3nonc3N)nc3ccccc32)c1", "IkBa stabilization activation": "inactive: 2.14%"}, {"molecule": "CC(=O)Nc1nc2ccccc2n1CCN(C)C", "IkBa stabilization activation": "inactive: -0.168%"}, {"molecule": "COc1ccccc1CNC(=O)CCCCn1c(=O)c2ccccc2n(CC(=O)Nc2cccc(Cl)c2)c1=O", "IkBa stabilization activation": "inconclusive: 3.62% [signal inhibitor]"}, {"molecule": "CCOc1ccc(/C=C/c2nc(C#N)c(N3CCC(C)CC3)o2)cc1", "IkBa stabilization activation": "inconclusive: 0.976% [signal inhibitor]"}, {"molecule": "CCc1ccc(Sc2cc(C(=O)NCCCN3CCC(C)CC3)c3ccccc3n2)cc1", "IkBa stabilization activation": "inconclusive: -0.977% [signal inhibitor]"}, {"molecule": "CCOc1ccc(-c2n[nH]c(C)c2Oc2ccc(OC)cc2)c(O)c1", "IkBa stabilization activation": "inconclusive: 5.6% [signal inhibitor]"}, {"molecule": "COc1ccc2oc(-c3ccc(NC(=O)c4ccc(Cl)cc4Cl)cc3)nc2c1", "IkBa stabilization activation": "inactive: 1.53%"}, {"molecule": "Cc1ccc(-n2ncc3c(N4CCN(c5ccc(F)cc5)CC4)ncnc32)cc1", "IkBa stabilization activation": "inconclusive: -2.06% [signal inhibitor]"}, {"molecule": "CCCCOn1c(C)c(C(=O)OCC)c2c3nonc3ccc21", "IkBa stabilization activation": "inactive: -0.757%"}, {"molecule": "O=C(C1CCN(S(=O)(=O)c2cccc3cccnc23)CC1)N1CC=C(c2ccccc2)CC1", "Potency": "inconclusive: 3.98 µM [signal inhibitor, partial curve]"}, {"molecule": "CCOC(=O)CNC(=O)CSc1nc2cccnc2n1C1CCCCC1", "IkBa stabilization activation": "inactive: -0.36%"}, {"molecule": "Cc1nn(CC(=O)NCc2ccccc2)c(=O)c2ccccc12", "IkBa stabilization activation": "inactive: -0.512%"}, {"molecule": "O=C(c1ccc2nc(-c3ccco3)c(-c3ccco3)nc2c1)N1CCN(c2ccccc2)CC1", "IkBa stabilization activation": "inconclusive: 0.951% [signal inhibitor]"}, {"molecule": "COc1cccc(NC(=O)N(Cc2cn(C)c3ccccc23)C2CCCCCC2)c1", "IkBa stabilization activation": "inconclusive: -3.14% [signal inhibitor]"}, {"molecule": "N#CC1=C(SCC(=O)NC2CCCCC2)NC(=O)CC1c1ccco1", "note": "(stereo not given)", "Potency": "inconclusive: 31.6 µM [signal inhibitor, partial curve]"}, {"molecule": "CCN1CCN(c2cc(C)c3cc(NC(=O)/C=C/c4ccc(C)cc4)ccc3n2)CC1", "IkBa stabilization activation": "inconclusive: 5.79% [signal inhibitor]"}, {"molecule": "COc1ccc2oc(-c3ccc(O)cc3)cc(=O)c2c1", "IkBa stabilization activation": "inactive: 0.0656% [at 11.4 µM, scaled: untreated 0%, proteasome inhibitor 100%]"}, {"molecule": "Cc1ccc(C)n1-c1nnc(N2CCCC(C(=O)NCc3cccc(Br)c3)C2)s1", "note": "(stereo not given)", "IkBa stabilization activation": "inconclusive: 4.73% [signal inhibitor]"}, {"molecule": "CCNc1nc(-c2ccc(Cl)cc2)cs1", "IkBa stabilization activation": "inconclusive: 5.47% [signal inhibitor]"}, {"molecule": "CC1=C(C(=O)NCc2ccc(Cl)cc2)C2(CCC(C)CC2)OC1=O", "note": "(stereo not given)", "IkBa stabilization activation": "inconclusive: 2.74% [signal inhibitor]"}, {"molecule": "CCCCCCCCCCCCCCC1CO1", "note": "(stereo not given)", "IkBa stabilization activation": "inactive: 0.399%"}, {"molecule": "COc1ccc(OC)c(Nc2nc(-c3sc(C)nc3C)cs2)c1", "IkBa stabilization activation": "inconclusive: -3.72% [signal inhibitor]"}, {"molecule": "COc1cc(/C=C\\C(=O)N2CCCCC2=O)cc(OC)c1OC", "Potency": "inconclusive: 3.98 µM [signal inhibitor, partial curve]"}, {"molecule": "CN(C)c1ccc(NC(=O)c2cccc(N3C(=O)CCC3=O)c2)cc1", "IkBa stabilization activation": "inactive: 10.4%"}, {"molecule": "Cc1c(Cl)cccc1-n1nc(C)c2c(C)cc(=O)n(CC(=O)N3CCCc4ccccc43)c21", "IkBa stabilization activation": "inconclusive: -0.799% [signal inhibitor]"}, {"molecule": "Cc1nc(Nc2nc(-c3ccccc3)cc(=O)[nH]2)nc2ccccc12", "Potency": "inconclusive: 2.51 µM [signal inhibitor, full curve]"}, {"molecule": "CN1CCN(c2nc(Nc3cccc(C(F)(F)F)c3)nc(N3CCOCC3)n2)CC1", "IkBa stabilization activation": "inconclusive: 7.06% [signal inhibitor]"}, {"molecule": "CCCOc1ccc(CNC(=O)C2CCN(C(=O)c3sccc3-n3cccc3)CC2)cc1", "IkBa stabilization activation": "inconclusive: -1.06% [signal inhibitor]"}, {"molecule": "Cc1cc2oc3c(c(=O)c2cc1C)C(c1ccc(C(C)C)cc1)N(c1nc(C)c(C)s1)C3=O", "note": "(stereo not given)", "IkBa stabilization activation": "inactive: -0.265%"}, {"molecule": "COc1ccc(-c2nc3ccccc3n3c(-c4ccc(OC)cc4)c4c(=O)n(C)c(=O)n(C)c4c23)cc1", "IkBa stabilization activation": "inactive: -1.55%"}, {"molecule": "CCOC(=O)c1ccc2c(c1)N(Cc1ccc(F)cc1Cl)C(=O)c1ccccc1S2", "IkBa stabilization activation": "inconclusive: -0.506% [signal inhibitor]"}, {"molecule": "Cc1cnc(=O)[nH]c1SCC(=O)Nc1cc(C(F)(F)F)ccc1Cl", "IkBa stabilization activation": "inconclusive: -0.417% [signal inhibitor]"}, {"molecule": "O=C(CNS(=O)(=O)c1ccc(Br)s1)N1CCN(c2ccccc2F)CC1", "IkBa stabilization activation": "inconclusive: 3.3% [signal inhibitor]"}]}]}
